# Measured values from the supplement of paper PMC12217912.
# The other results are listed elsewhere or left out. The full chains were built here from the parent and the listed change. Values near 0.05 are background.
# B1: TEV protease; numbered along this chain (parent)
# chain: MGESLFKGPRDYNPISSSICHLTNESDGHTTSLYGIGFGPFIITNKHLFRRNNGTLVVQSLHGVFKVKDTTTLQQHLVDGRDMIIIRMPKDFPPFPQKLKFREPQREERICLVTTNFQTKSMSSMVSDTSCTFPSGDGIFWKHWIQTKDGQCGSPLVSTRDGFIVGIHSASNFTNTNNYFTSVPKNFMELLTNQEAQQWVSGWRLNADSVLWGGHKVFMVKPEEPFQPVKEATQL
# Variants of: B1
# Assay: raw area under fraction-flipped curve 0-4 h after induction (AUC4h, not background-subtracted), DNA-recorder readout of cleavage of the substrate (dimensionless); higher = more cleavage of the substrate by the protease variant
# Conditions: temperature: 34 °C; time window: 0-4 h after rhamnose induction
# Method: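 In vivo DNA recorder in E. coli TOP10(DE3) ΔrhaA at 34 °C. Each TEVp single-site mutant (parent TEVp 0) is paired with a single-site variant of the 7-mer TEVs (canonical ENLYFQ|S). The substrate sits between flexible linkers in a Bxb1-sfGFP-TEVs-SsrA fusion, so cleavage stabilises Bxb1 and speeds flipping of a recombination array, read by NGS. The value is the raw area under the fraction-flipped curve over 0-4 h after rhamnose induction (AUC4h), with ≥20 reads per time point. It is not background-subtracted; inactive controls average about 0.047.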
# 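Note: Bxb1 expression induced with 0.2% (w/v) L-rhamnose at OD600 near 0.5, cultures sampled hourly, flipped fraction per protease–substrate barcode pair counted by paired-end Illumina sequencing.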
Variant,area with substrate ENLYFQA,area with substrate ENLYFQC,area with substrate ENLYFQD,area with substrate ENLYFQG,area with substrate ENLYFQI,area with substrate ENLYFQK,area with substrate ENLYFQL,area with substrate ENLYFQM,area with substrate ENLYFQP,area with substrate ENLYFQR,area with substrate ENLYFQS,area with substrate ENLYFQT,area with substrate ENLYFQW,area with substrate ENLYFQY,area with substrate ENLYFQF,area with substrate ENLYFQN,area with substrate ENLYFQQ,area with substrate ENLYFQH,area with substrate ENLYFQV,area with substrate ENLYFQE
I145D,0.0399,0.0732,0.0643,0.0665,0.045,0.0556,0.0609,0.0686,0.0798,0.0582,0.0568,0.0613,0.0596,0.0585,,,,,,
S169F,0.0697,0.0711,0.0592,0.0587,0.0441,0.06,0.0536,0.0592,,0.0627,0.0643,,0.0509,0.0558,0.0675,0.0498,0.0632,,,
S169T,0.117,0.138,0.0627,0.122,0.0658,0.0612,0.0596,0.0902,,0.0619,0.126,0.0613,0.0693,,,,0.0813,0.0831,0.0634,
Q146R,0.1,,,0.119,0.0656,,0.0665,0.0776,,0.0674,0.108,0.0576,,0.0747,0.0751,0.0716,0.0686,,0.0612,
I164C,0.0974,0.108,0.0752,0.089,,0.0617,0.0634,0.0902,0.0664,0.0582,0.0918,0.0713,0.0859,0.0692,0.0752,0.0801,,0.0832,0.0602,
V183T,0.0947,0.0993,,0.0913,0.0452,0.052,0.0542,0.0873,0.0686,0.0578,0.104,0.0382,,0.0834,0.069,0.0811,,0.104,0.0626,
N177A,0.104,,0.0687,0.127,0.0624,0.074,,0.109,,0.0604,0.105,0.0654,,0.0832,0.056,0.0785,0.0738,,,0.0766
N177H,0.0997,,0.0772,0.104,0.0496,,0.0517,0.0699,0.0607,0.0613,0.0898,0.0625,0.0639,0.0655,,0.0662,,0.0781,0.0538,
G162M,0.0973,0.0971,0.0628,,0.0452,,0.0606,0.0678,0.0468,0.0575,0.0964,0.0575,0.0638,,0.0422,,0.0707,,,
N186L,0.087,0.123,0.0737,,0.0581,0.0574,0.0568,0.0799,,0.0549,0.109,0.0598,0.0679,0.0646,,0.0739,0.054,0.0804,0.0516,
K185T,0.116,0.105,0.0785,0.0709,0.067,0.0675,0.0548,0.0762,0.0498,0.0602,0.102,0.0851,0.0603,0.089,,0.0838,,0.0843,0.0575,
